Test results published in PubChem BioAssay AID1508624 (National Center for Advancing Translational Sciences (NCATS), 2021).
Hit rate of the full screen: of about 48,000 compounds, about 120 (0.25%) were called active. Not shown: some 4% with an inconclusive outcome. Calls follow the shape of the dose curve; as a rule, active = well fitted activation curve with a large enough effect; inconclusive = small, poorly fitted or top-dose-only effect, or another doubt; inactive = no such curve, though single readings can be large or run the other way. This is one part of the list.

test: Primary qHTS for Identification of Small Molecule Activators of Huntingtin-Antisense Promoter Activity; settings: HEK293 HTT-AS promoter firefly luciferase reporter (activity 0% = vehicle and -100% = no light), 24 h; series mostly up to 57.5 µM; activity change, positive = activation: at the top concentration; also: nearly all actives have a fitted effect of over 55% in size
Procedure, shortened: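 Firefly luciferase readout (Dual-Glo, 10 min RT) after 24 h, 37 °C compound exposure (final up to 57.5 uM) of HEK293 reporter cells cultured 24 h beforehand; PTC124 at 50 uM final as control inhibitor; activity scaled vehicle 0%, zero RLU -100%.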

Activity change, positive = activation, inactive:
CCc1cccc(NC(=O)c2nc(-c3ccncc3)no2)c1 -6.76%
CCOc1ccc(C(=O)Nc2ccc(-c3nc4cc(C(C)C)ccc4o3)cc2)cc1Cl -21.8%
COc1ccc(C2=NN(CC(=O)NCc3ccccc3Cl)C(=O)CC2)cc1 -0.527%
Cc1ccc(CCNC(=O)c2c(C)oc3ncnc(N4CCOCC4)c23)cc1 -12%
COc1cccc(CNC(=O)N2CCC(CN3CCC(C)CC3)CC2)c1 -2.88%
Cc1ccc(NCc2cccn2-c2nnc(N3CCC(C(=O)NCCc4ccccc4)CC3)s2)cc1 -20.7%
NC(=Nc1ccccc1)Nc1ccccc1
Cc1ccc2c(c1)N(C(=O)N1CCC(C(=O)NCCC3=CCCCC3)CC1)CC(C)O2 (stereo not drawn) -20.6%
Cc1c(C(=O)N2CCCC2)oc2c1-c1nn(CC(=O)NCc3cccc(F)c3)cc1CC2 -29.3%
Cc1ccccc1Nc1ncnc2c1c(-c1ccccc1)cn2-c1ccc(F)cc1 -17.2%
O=C(CCc1nc2cccnc2n1Cc1ccccc1)NCc1cccc(Cl)c1 -12.1%
OCc1cnc(SCc2cccc(F)c2)n1Cc1ccc(F)cc1 -31.5%
O=C(Nc1cccc(Cl)c1)c1ccc2nc(Cc3ccccc3)oc2c1 5.41%
Cc1ncc(COC(=O)C(C)C)c2cc(C(=O)Nc3ccccc3C(F)(F)F)c(=O)oc12 -11.5%
CCN(CC)CCCNC(=O)CCc1c(C)n(CC)c2cc(-c3ccccc3OC)nn2c1=O 1.59%
CCCCn1c(CNC(=O)C23CC4CC(CC(C4)C2)C3)nnc1SCC(=O)Nc1ccccc1 -15.9%
CCOc1ccc(CCNc2ncnc3onc(-c4ccc(F)cc4)c23)cc1OCC -34%
CN1c2ccc(Cl)cc2-c2nc(SCC(=O)Nc3cc(F)ccc3F)ncc2S1(=O)=O -34.3%
COC(=O)NNC(=O)C1CCC(C)CC1 (stereo not drawn) -11.8%
Cc1cccc(N2C(=O)CS(=O)(=O)C23C(=O)N(C)c2ccccc23)c1 (stereo not drawn) -9.03%
COC(=O)c1ccccc1NC(=O)c1ccc2c(c1)CCN2S(=O)(=O)c1ccc(C)cc1 -8.46%
O=c1cc(-c2ccccc2)n2c(SCc3ccc([N+](=O)[O-])cc3)nnc2[nH]1 2.81%
CC1=C(C(N)=O)C(c2cccc(F)c2)n2nc(SCc3ccccc3)nc2N1 (stereo not drawn) 5.58%
O=C(O)Cn1nc(N2CCN(c3ccc(F)cc3)CC2)ccc1=O -2.99%
COc1cc(OC)c(NC(=O)C2=C(C)C(=O)OC23CCCCC3)cc1Cl -20.7%
COc1ccccc1CNC(=O)c1cc(Sc2cccc(Cl)c2)nc2ccccc12 -30.6%
CCc1ccc(C(=O)c2cnc3ccc(C)cc3c2S(=O)(=O)c2ccc(OC)cc2)cc1 -34.8%
CCCCc1ccc(C(=O)Nc2ccc3nc(N(CC)CC)cc(C)c3c2)cc1 -37.7%
